{
  "source": "paper PMC12136788",
  "binders": {"B1": {"name": "chr7:65954205:65954306:+|CDS_3pUTR|ENSG00000196715|msi1_unk|total|mutant (ssRNA)", "RNA": "GGGAGUUCUACAGUCCGACGAUCCAUCUGCAUCGUCACGUACGUGCUGAACUUCCUUCUUCUCAUUAUCAACUACAAACGACCCGUUUACUUGAACGAGGCCUGGAAGCGGCAGCUGCAACCCAAGCAGGACUGACGCCCGACCAACAGAGGAUUGAGCAUCA"}, "B2": {"name": "chr5:10679541:10679642:-|3pUTR|ENSG00000112977|msi1|FALSE|unique (ssRNA)", "RNA": "GGGAGUUCUACAGUCCGACGAUCCUUCAAGGCCCUGUCACCACCUAUUUCCUGAUCAGUUGGUAUAAACUGAGGGUGGCUUUUAGAGACCCAGACUUGGUUGGCAGCGCUGCCAUGGAACACCCCAGCAAGCACCUCCCAGCCCAACAGAGGAUUGAGCAUCA"}, "B3": {"name": "chr12:4445224:4445570:-|CDS|ENSG00000111241|control|control|control (ssRNA)", "RNA": "GGGAGUUCUACAGUCCGACGAUCCAACACGCUGCUGGACUCGAGGGGCUGGGGCACCCUGCUGUCCAGGUCUCGCGCCGGGCUAGCUGGAGAGAUUGCCGGGGUGAACUGGGAAAGUGGCUAUUUGGUGGGGAUCAAGCGGCACAACAGAGGAUUGAGCAUCA"}, "B4": {"name": "chr11:28036422:28036524:-|CDS|ENSG00000121621|unk|FALSE|unique (ssRNA)", "RNA": "GGGAGUUCUACAGUCCGACGAUCCAGCUCAAUGAUUCUCUUAGCAAAGAACUUCAGCCUAUUGUAUAUACACCAGAAGACUGUAGAAAAGCUUUUCAAAAUCCGUCUACAGUAACCUUAAUGAAACCAUCAUCAUUUACUACACAACAGAGGAUUGAGCAUCA"}, "B5": {"name": "chr10:97759570:97759671:+|3pUTR|ENSG00000155256|msi1|total|mutant (ssRNA)", "RNA": "GGGAGUUCUACAGUCCGACGAUCGACUGAGCGAGUGGACUCCGGGCUGGGCAGGCAGCCGCCACCAGAGGGCAGCAGCGAACCCGGCCAGGCCUGACUGGGGUCUGAAGAUCAGGGUCAGUGUGGCUGUGCCUGGGAAUUCCACAACAGAGGAUUGAGCAUCA"}, "B6": {"name": "chr22:28629602:28629705:-|CDS|ENSG00000100154|unk|FALSE|unique (ssRNA)", "RNA": "GGGAGUUCUACAGUCCGACGAUCAUUGUUCUGUAUAAUGAAGCCCUGGCUGUUGACCCUCAGAACUGCAUCUUAUACAGCAAUAGAUCUGCAGCCUACAUGAAAAUCCAGCAGUAUGACAAGGCACUGGAUGAUGCAAUCAAACAACAGAGGAUUGAGCAUCA"}},
  "note": "Some of the results follow.",
  "data": [
    {"target": "T1, UNK ZnF1-6 (called full-length) (human, UniProt Q9C0B0 30-357)", "T1 sequence": "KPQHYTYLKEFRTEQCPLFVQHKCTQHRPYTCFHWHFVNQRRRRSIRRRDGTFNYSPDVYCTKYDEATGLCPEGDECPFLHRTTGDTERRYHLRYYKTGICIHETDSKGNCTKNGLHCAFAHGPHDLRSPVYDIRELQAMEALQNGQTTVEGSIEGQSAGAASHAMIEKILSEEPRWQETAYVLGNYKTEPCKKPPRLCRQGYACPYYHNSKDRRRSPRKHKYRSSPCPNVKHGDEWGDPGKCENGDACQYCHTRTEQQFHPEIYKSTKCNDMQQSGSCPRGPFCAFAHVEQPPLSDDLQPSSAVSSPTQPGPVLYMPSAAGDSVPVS", "assay": "nsRBNS (natural sequence RNA bind-n-seq); RBNS binding buffer (assumed for nsRBNS): 25 mM Tris pH 7.5, 150 mM KCl, 3 mM MgCl2, 0.01% Triton X-100, 500 ug/ml BSA, 20 U/ml SUPERase-In, 4 C; UNK is unkempt and MSI1 is Musashi-1; names of the RNAs are library labels; protein concentration not given here; high values mean tight binding", "units": {"binding signal": "enrichment R"}, "values": [
      {"binder": "B1", "binding signal": 0.769},
      {"binder": "B2", "binding signal": 0.934},
      {"binder": "B3", "binding signal": 1.04},
      {"binder": "B4", "binding signal": 0.627},
      {"binder": "B5", "binding signal": 0.476},
      {"binder": "B6", "binding signal": 0.451}
    ]}
  ]
}
